The target of assay [1] is T1, full-length human TIGIT on the cell membrane (CHO-K-TIGIT cells; TIGIT-Jurkat cells) (human, UniProt Q495A1 22-244).
T1 construct: whole, on cells; Also used here for TIGIT on human PBMCs in the IFN-gamma assay; also called CHO-TIGIT
T1 sequence (looked up): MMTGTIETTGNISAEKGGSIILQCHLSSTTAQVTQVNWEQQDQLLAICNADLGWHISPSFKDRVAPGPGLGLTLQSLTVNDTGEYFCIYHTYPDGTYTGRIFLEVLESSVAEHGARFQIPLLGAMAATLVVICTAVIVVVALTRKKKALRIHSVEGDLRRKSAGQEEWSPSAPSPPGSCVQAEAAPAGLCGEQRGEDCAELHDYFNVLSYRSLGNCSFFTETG
Description: flow cytometry on TIGIT-Jurkat cells. On the procedure: The binding activity of the anti-TIGIT antibody-IL2 fusion proteins to TIGIT on the cell membrane was tested using flow cytometry. A Jurkat cell line stably expressing human TIGIT was first established. The full-length human TIGIT gene (Sinobio) was amplified by PCR and cloned into the mammalian cell expression vector pcDNA3.1 (Invitrogen), using Not I and Xba I as cloning enzymes. The TIGIT expression plasmid was transfected into Jurkat cells to construct a stable Jurkat cell line expressing TIGIT (TIGIT-Jurkat).
The flow cytometry study method for the binding of TIGIT antibody-IL2 fusion proteins to cell membrane-bound TIGIT is summarized as follows: FACS buffer (1×PBS+0.5% BSA solution) was prepared. The required number of TIGIT-Jurkat cells, about 1×10⁵ to 5×10⁵ cells per sample, was taken and incubated with HC1-IL2 wt/LC1 (ART-Ig) and HC1-IL2mut/LC1 (ART-Ig) diluted to a certain ratio in FACS buffer, approximately 100 μL, at 4° C. for 30 minutes. After washing the cells once with FACS buffer, they were resuspended in FITC-conjugated anti-human IgG (Abcam: 6854) diluted in FACS buffer and incubated at 4° C. for 30 minutes. Finally, after washing the cells with FACS buffer, they were resuspended in 200 μL of FACS buffer for analysis. The parent TIGIT antibody P03479 was used as a control.
(In general: In flow cytometry, cells or beads pass a laser one at a time.)

For assay [2], the target named is T2, recombinant IL2Rβ subunit (Sinobio) (UniProt P14784 27-239, limits assumed).
T2 construct: also called IL2RB
T2 sequence (looked up): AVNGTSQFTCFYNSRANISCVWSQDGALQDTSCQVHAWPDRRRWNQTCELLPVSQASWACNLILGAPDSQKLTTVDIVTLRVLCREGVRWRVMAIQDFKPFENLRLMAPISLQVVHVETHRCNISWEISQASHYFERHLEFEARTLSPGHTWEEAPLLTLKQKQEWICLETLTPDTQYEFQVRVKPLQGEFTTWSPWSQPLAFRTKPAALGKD
Kind of assay: BLI, recombinant IL2Rβ subunit.

For assay [3], the target named is T3, IL2Rαγ (dimer) on 293F cells (human, UniProt P01589 22-272; P31785 23-369).
T3 construct: whole, on cells
T3 sequence (looked up) 1: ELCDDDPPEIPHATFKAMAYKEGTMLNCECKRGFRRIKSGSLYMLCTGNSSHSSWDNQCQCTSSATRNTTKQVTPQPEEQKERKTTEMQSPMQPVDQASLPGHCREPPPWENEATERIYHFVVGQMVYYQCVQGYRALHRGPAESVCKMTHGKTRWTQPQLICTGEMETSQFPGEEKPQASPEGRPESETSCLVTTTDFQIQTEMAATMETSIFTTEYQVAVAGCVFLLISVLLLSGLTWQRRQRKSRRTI
T3 sequence (looked up) 2: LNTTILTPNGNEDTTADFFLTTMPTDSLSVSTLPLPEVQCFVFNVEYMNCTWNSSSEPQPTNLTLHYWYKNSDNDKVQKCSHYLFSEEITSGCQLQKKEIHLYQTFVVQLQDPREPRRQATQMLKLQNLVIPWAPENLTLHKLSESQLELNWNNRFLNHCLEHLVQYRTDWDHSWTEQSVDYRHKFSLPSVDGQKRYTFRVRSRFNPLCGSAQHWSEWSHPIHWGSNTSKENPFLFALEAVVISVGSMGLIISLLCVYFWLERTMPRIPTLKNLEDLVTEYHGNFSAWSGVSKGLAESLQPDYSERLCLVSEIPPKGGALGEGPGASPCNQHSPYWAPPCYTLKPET
Kind of assay: flow cytometry on 293F cells expressing IL2Rαγ. The source says: The expression of the respective IL2R subunits on the cell membrane was detected using antibodies against IL2Rα, IL2Rβ, and IL2Ry.

B1: HC1-IL2wt/LC1(ART-Ig) (other)
heavy 1: EVQVVESGGGLVKPGGSLRLSCAASGFTFSTYAMSWVRQAPGKGLEWVAEISSGGSHTFYADTVKGRFTISRDNAKNTLYLQMNSLRAEDTAVYYCARKTLDYYALDYWGQGTTVTVSSASTKGPSVFPLAPSSKSTSGGTAALGCLVKDYFPEPVTVSWNSGALTSGVHTFPAVLQSSGLYSLSSVVTVPSSSLGTQTYICNVNHKPSNTKVDKKV[sequence of human IgG1 Fc with D356K H435R (EU numbers) not given]GGGGSGGGGSGGGGS[sequence of about 150 residues not given]
heavy 2: EVQVVESGGGLVKPGGSLRLSCAASGFTFSTYAMSWVRQAPGKGLEWVAEISSGGSHTFYADTVKGRFTISRDNAKNTLYLQMNSLRAEDTAVYYCARKTLDYYALDYWGQGTTVTVSSASTKGPSVFPLAPSSKSTSGGTAALGCLVKDYFPEPVTVSWNSGALTSGVHTFPAVLQSSGLYSLSSVVTVPSSSLGTQTYICNVNHKPSNTKVDKKV[sequence of human IgG1 Fc with K439E (EU numbers) not given]
light: DVQITQSPSYLSASVGDRVTINCRASKSISKYLAWYQQKPGKAPKLLIYSGSRLQSGIPSRFSGSGYGTDFTLTISSLQPEDFATYYCQQHNEYPWTFGGGTKLEIKRTVAAPSVFIFPPSDEQLKSGTASVVCLLNNFYPREAKVQWKVDNALQSGNSQESVTEQDSKDSTYSLSSTLTLSKADYEKHKVYACEVTHQGLSSPVTKSFNRGEC
notes: Heterodimeric anti-TIGIT ([…]) IgG1 with one wild-type human IL2 on one heavy chain; also called anti-TIGIT antibody HC-IL2 fusion protein (IL2 wild type)
As usually defined, the EC50 is the midpoint of the concentration-response curve. As for B1, the EC50 in assay [1] stood at 0.28 µg/mL.

B2: HC1-IL2mut/LC1(ART-Ig) (other)
heavy 1: EVQVVESGGGLVKPGGSLRLSCAASGFTFSTYAMSWVRQAPGKGLEWVAEISSGGSHTFYADTVKGRFTISRDNAKNTLYLQMNSLRAEDTAVYYCARKTLDYYALDYWGQGTTVTVSSASTKGPSVFPLAPSSKSTSGGTAALGCLVKDYFPEPVTVSWNSGALTSGVHTFPAVLQSSGLYSLSSVVTVPSSSLGTQTYICNVNHKPSNTKVDKKV[sequence of human IgG1 Fc with D356K H435R (EU numbers) not given]GGGGSGGGGSGGGGSAPTSSSTKKTQLQLEHLLLDLQMILNGINNYKNPKLTRMLTAKFYMPKKATELKHLQCLEEELKPLEEVLNLAQSKNFHFDPRDVVSNINVFVLELKGSETTFMCEYADETATIVEFLNRWITFCQSIISTLT
heavy 2: B1 heavy 2
light: B1 light
notes: Heterodimeric anti-TIGIT (P03479) IgG1 with one mutant IL2 on one heavy chain; also called anti-TIGIT antibody HC-IL2 fusion protein (IL2mut)
Broadly, the Kd is a measure of binding affinity in units of concentration. For B2, in assay [2], the Kd is ~8.2 nM. Besides, the EC50 in assay [1] was determined as 0.33 µg/mL. Moreover, the binding result in assay [3] is given as “binds”.

These data come from patent US20240400680A1 (SHANGHAI CELGEN BIO PHARMACEUTICAL, published 2024).
